# Data: patent US20250367225A1 (priority 2022, published 2025)
# System: influenza A virus (H1N1) PR/8/34 (PR8) strain
# Experiment: Influenza A PR8 challenge of C57BL/6 mice
# Assay type: in vivo
# Details: 2 μg IN 2 days prior, day 3
smiles,measurement,value
CCCCCCCCCCCCCC[C@@H](O)[C@@H](O)[C@H](CO[C@H]1O[C@H](CO)[C@H](O)[C@H](O)[C@H]1O)NC(=O)CCCCCCCCCCc1ccc(F)cc1 [7DW8-5],infectious virus in lung tissues,reduced the amount of infectious virus
